The campaign covered roughly 360,000 compounds. About 25,000 (6.9%) were called active. Inconclusive means that the source gave no clear call. Such entries were picked first, then a sample of the others. Calls follow the shape of the dose curve; as a rule, active = well fitted inhibition curve with a large enough effect; inconclusive = small, poorly fitted or top-dose-only effect; inactive = flat fitted curve, though single readings scatter. A potency beside an inconclusive call is a rough fit, not a confirmed value.
Target: Luciferin 4-monooxygenase (Photinus pyralis) (UniProt P08659)
Test: qHTS profiling assay for firefly luciferase inhibitor/activator using purifed enzyme and Km concentrations of substrates (counterscreen for miR-21 project); also: nearly all actives have a fitted effect of over 55% in size
Conditions: purified FLuc, luminescence inhibition; series mostly up to 57.5 µM
Procedure, shortened: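 Purified P. pyralis luciferase (10nM final) with 10uM D-luciferin and 10uM ATP (Km levels) in 50mM Tris acetate pH 7.5, 10mM Mg acetate, 0.01% Tween-20, 0.05% BSA; qHTS 6-point titration, ~60 µM downward; luminescence read.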
Potency is read from the fitted curve at half-maximal effect; tags tell the direction and shape of the fitted curve.

Chain of UniProt P08659 (P08659 whole entry, looked up): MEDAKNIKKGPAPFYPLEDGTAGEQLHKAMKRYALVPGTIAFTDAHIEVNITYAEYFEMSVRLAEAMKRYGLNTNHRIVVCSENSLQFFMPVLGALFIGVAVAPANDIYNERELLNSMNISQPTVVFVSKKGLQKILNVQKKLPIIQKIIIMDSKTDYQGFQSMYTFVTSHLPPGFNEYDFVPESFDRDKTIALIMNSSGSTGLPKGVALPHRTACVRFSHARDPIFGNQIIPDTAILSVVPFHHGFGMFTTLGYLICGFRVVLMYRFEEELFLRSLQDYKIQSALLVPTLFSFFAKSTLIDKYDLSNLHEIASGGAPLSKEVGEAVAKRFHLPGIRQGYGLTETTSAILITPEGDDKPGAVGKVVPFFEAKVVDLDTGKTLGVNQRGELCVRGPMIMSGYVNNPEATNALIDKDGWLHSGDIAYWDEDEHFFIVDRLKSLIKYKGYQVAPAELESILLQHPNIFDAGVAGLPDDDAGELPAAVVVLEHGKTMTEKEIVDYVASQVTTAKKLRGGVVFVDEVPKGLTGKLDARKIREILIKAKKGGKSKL

SMILES | Potency
CCOCCCNC(=O)c1ccc2c(c1)ncn2C1CCCC1 | inconclusive: 19 µM [inhibitor, single point]
Cc1ccc(CC(NC(=O)c2ccccc2)C(=O)NC(Cc2ccccc2)C(=O)O)cc1 (stereo not drawn) | inconclusive: 23.9 µM [inhibitor, partial curve, poor fit]
CCOc1ccc(NC(=O)c2ncn(-c3ccccc3)n2)cc1 | inconclusive: 37.9 µM [inhibitor, single point]
COC(=O)C(Cc1ccccc1)NC(=O)c1ccc(C)cc1 (stereo not drawn) | active: 6.01 µM
COc1ccc(-c2c(C)nn3c(-c4ccccc4)cc(-c4ccccc4)nc23)cc1 | inactive
CCOC(=O)c1c(C)n(-c2ccc(C)cc2)c2ccc(OCC(O)CN3CCN(C)CC3)cc12 (stereo not drawn) | inconclusive: 30.1 µM [inhibitor, partial curve, poor fit]
Cc1ccc(C2=NNC(c3cccc(F)c3)S2)cc1 (stereo not drawn) | active: 0.426 µM
COc1ccc2nc3cc(Cl)ccc3c(Nc3cc(C(C)C)c(O)cc3C)c2c1 | inconclusive: 21.3 µM [inhibitor, partial curve, poor fit]
O=C(O)c1cccc(NC(=O)c2ccccc2NC(=O)c2cccc([N+](=O)[O-])c2)c1 | inconclusive: 10.7 µM [inhibitor, partial curve]
Cc1ccc(-c2nnc(-c3ccc4c(c3)OCO4)o2)cc1 | active: 1.35 µM
O=C(CN(Cc1cccs1)S(=O)(=O)c1ccc(S(=O)(=O)N2CCCCC2)cc1)Nc1ccccc1 | inactive
Cc1cc(Br)ccc1-n1[nH]c(C)c(C=Nc2cccc3nsnc23)c1=O | inconclusive: 19 µM [inhibitor, partial curve, poor fit]
CC(C)C(=O)Nc1ccc2c(c1)nc1n2CCSC1 | inconclusive: 21.3 µM [inhibitor, partial curve, poor fit]
COc1cccc(C(=O)/C=C/c2ccc(OCC#N)c(OC)c2)c1 | inconclusive: 9.53 µM [inhibitor, partial curve]
CCOC(=O)C1CCN(C(=O)c2cc3cc(F)ccc3[nH]2)CC1 | inconclusive: 30.1 µM [inhibitor, partial curve, poor fit]
CCOC(=O)CC1COCCN1C(=O)c1cc(COc2ccc(F)cc2Cl)on1 (stereo not drawn) | inconclusive: 23.9 µM [inhibitor, single point]
CCc1nc(Nc2cccc(OC)c2)c2oc3ccccc3c2n1 | inconclusive: 26.9 µM [inhibitor, single point]
N=c1c(-c2nc3ccccc3[nH]2)cc(C(=O)c2ccco2)nn1-c1ccccc1 | inactive
Cc1ccc2nc(-c3ccc(-c4cccc(Cl)c4)cc3)c(NCc3ccccc3)n2c1 | inconclusive: 26.9 µM [inhibitor, partial curve, poor fit]
Cc1ccccc1C(CC(=O)c1cccs1)C(C#N)C#N (stereo not drawn) | inconclusive: 26.9 µM [inhibitor, partial curve, poor fit]
COc1cccc(-c2c(C(=O)N/N=C/c3sccc3C)nnn2-c2nonc2N)c1 | inconclusive: 37.9 µM [inhibitor, partial curve, poor fit]
Nc1cc([N+](=O)[O-])ccc1Nc1ccc(O)cc1 | inconclusive: 30.1 µM [inhibitor, partial curve, poor fit]
O=C(NCC1CCCO1)C1CC(=O)N(c2ccccc2)C1 (stereo not drawn) | inactive

SMILES | Potency
COc1ccc(-c2cc(=O)oc3cc(OCC(=O)NCC4CCC(C(=O)O)CC4)ccc23)cc1 (stereo not drawn) | inconclusive: 26.9 µM [inhibitor, single point]
O=C(Cc1ccc(NC(=O)N2CCCCc3ccccc32)cc1)Nc1ccccc1Br | inconclusive: 12 µM [inhibitor, partial curve]
CCSc1nnc(NC(=O)C2CCCCC2)s1 | inconclusive: 21.3 µM [inhibitor, single point]
COc1ccc(/C=N/N(C)c2cc(=O)n(C)c(=O)[nH]2)cc1OC | active: 16.9 µM
O=C(CC(Nc1ccccc1)c1ccc(F)cc1)c1ccccc1 (stereo not drawn) | inconclusive: 26.9 µM [inhibitor, single point]
Cc1nc2ccc(Oc3ccccc3)cc2s1 | active: 16.9 µM
CCCCN1C(=O)/C(=C2\SC(N3CCOCC3)=NC2=O)c2ccccc21 | inconclusive: 3.38 µM [inhibitor, partial curve]
N/C(=N\OC(=O)CN1C(=O)c2ccccc2C1=O)c1ccc(Br)cc1 | inconclusive: 37.9 µM [inhibitor, partial curve, poor fit]
O=C(Nc1nc(-c2ccncc2)cs1)c1ccco1 | inconclusive: 30.1 µM [inhibitor, single point]
Cc1nc(C)c(-c2ccc(SCC(=O)Nc3cccc(F)c3)nn2)s1 | inconclusive: 7.57 µM [inhibitor, partial curve, poor fit]
CCCC(=O)Nc1nc(-c2ccc(OC)cc2)cs1 | inconclusive: 19 µM [inhibitor, partial curve]
O=C1/C(=C\c2ccco2)SC(=S)N1c1ccc(O)cc1 | inconclusive: 26.9 µM [inhibitor, partial curve, poor fit]
O=C1C=C(c2ccc3ccccc3c2)C[C@@H](c2ccc(F)cc2)C1 | inconclusive: 10.7 µM [inhibitor, partial curve, poor fit]
COc1cccc2c1cc1c(=O)n(CC(=O)N3CCN(c4ccccc4F)CC3)nc(C)n12 | inactive
Cc1cc2ccccc2nc1SCC(=O)NC1CCCCC1 | inconclusive: 30.1 µM [inhibitor, partial curve, poor fit]
CN(C)c1ccc(Nc2cc(Cl)ncn2)cc1 | inconclusive: 26.9 µM [inhibitor, single point]
N#Cc1ccccc1NC(=O)COC(=O)CCc1ccccc1 | inactive
COc1ccccc1C(=O)Nc1cccc(SC)c1 | active: 16.9 µM
c1ccc(-c2nc3ccccn3c2NCc2ccc3c(c2)OCO3)cc1 | inconclusive: 21.3 µM [inhibitor, partial curve]
Cc1ccc(C)c(CSc2nc3c([nH]c4ccccc43)c(=O)n2C)c1 | inactive
Cc1ccc(-n2c(C)cc(/C=C3/SC(=O)N(CC(=O)N4CCOCC4)C3=O)c2C)nc1 | active: 1.51 µM
COc1ccc(/C=N/NC(=O)CN(CCc2ccccc2)S(=O)(=O)c2ccc(NC(C)=O)cc2)cc1OC | inconclusive: 37.9 µM [inhibitor, partial curve, poor fit]
COc1cc(/C=C2\SC(=S)N(NS(=O)(=O)c3ccccc3)C2=O)ccc1O | inconclusive: 37.9 µM [inhibitor, single point]

SMILES | Potency
CC(C)c1ccc2oc(-c3ccc(Cl)c(NC(=O)c4cccs4)c3)nc2c1 | active: 2.13 µM
O=C(CSC(=S)N1CCCCC1)N1N=CCC1c1ccccc1 (stereo not drawn) | active: 21.3 µM
C/C(N)=C(/C#N)C(=O)COC(=O)CCSc1ccccc1Cl | inconclusive: 23.9 µM [inhibitor, partial curve, poor fit]
Oc1[nH]c2ccc(Br)cc2c1N=NC(=S)Nc1ccc(F)cc1 | inactive
O=[N+]([O-])c1cccc2ccc(/C=C/c3ccc(Cl)cc3)nc12 | inconclusive: 21.3 µM [inhibitor, partial curve]
CCCOc1ccc(-c2nc(C#N)c(NCC3CCCO3)o2)cc1 (stereo not drawn) | inconclusive: 6.75 µM [inhibitor, partial curve]
Cc1ccc(C(=O)Nc2ccc(F)cc2)cc1S(=O)(=O)N1CCCCCC1 | inconclusive: 15.1 µM [inhibitor, partial curve]
CC(C)C(=O)NNc1nc2ccccc2s1 | inconclusive: 12 µM [inhibitor, partial curve]
CC(C)(C)C(=O)Nc1cc(-c2cccc(Br)c2)nn1-c1ccccc1 | inconclusive: 23.9 µM [inhibitor, single point]
O=C1CCCC(O)=C1N=Nc1ccc(Cl)c(Cl)c1 | inconclusive: 16.9 µM [inhibitor, partial curve]
COCCCNC(=O)c1ccc(Cn2c(=O)c3ccccc3n(CC(N)=O)c2=O)cc1 | inactive
COc1ccc(-c2csc(NC(=O)CCS(=O)(=O)c3ccccc3)n2)c(OC)c1 | inconclusive: 26.9 µM [inhibitor, partial curve, poor fit]
Cc1csc2cc(-c3cccc([N+](=O)[O-])c3)c(-c3cccc([N+](=O)[O-])c3)c[n+]12 | inactive
Cc1nc(NC(=O)/C=C/c2ccccc2)sc1C(=O)N1CCCCC1 | inconclusive: 19 µM [inhibitor, single point]
CCCOC(=O)c1ccc(NC(=O)Oc2ccccc2)cc1 | inconclusive: 23.9 µM [inhibitor, single point]
CCC(=O)N1c2ccccc2CC1C(=O)NCCCN1CCN(c2cc(C)ccc2C)CC1 (stereo not drawn) | inactive
O=C(CNC(=O)c1ccccc1)OCc1cccc(Br)c1 | inconclusive: 37.9 µM [inhibitor, partial curve, poor fit]
CN(C)c1ccc(/C=N\Nc2ccccn2)cc1 | active: 0.953 µM
Cc1ccc(C(=O)Nc2ccc(C(=O)O)cc2NC(=O)c2ccc(C)cc2)cc1 | active: 21.3 µM
c1ccc(CSc2nnc(NC3=NCCCCC3)s2)cc1 | active: 16.9 µM
COc1ccc(N/N=C(\C#N)C(=N)N2CCOCC2)cc1 | inconclusive: 33.8 µM [inhibitor, single point]
O=C(Nc1ccccc1)C1=C(O)CC(c2ccc(Cl)cc2)N2CCN=C12 (stereo not drawn) | inconclusive: 37.9 µM [inhibitor, partial curve, poor fit]

From PubChem BioAssay AID588342 (National Center for Advancing Translational Sciences (NCATS), 2011)
